For assay [1], the target named is Ste7_(105-165)–Spa2CRU (Saccharomyces cerevisiae) (UniProt P06784+P23201). The assay can be described thus: split reporter; foldback competition assay with full-length Spa2CRU extended at its N-terminus, Split-Ub as in Fig. 1E (transformants transferred onto 5-FOA medium) (Fig. 3B).
The target in assay [2] is full-length Spa2CRU (Saccharomyces cerevisiae) (UniProt P23201). Described as above.
Assay [3] addresses Msb4_(22-81)–Spa2CRU (Saccharomyces cerevisiae) (UniProt Q12317+P23201). Described as above.
In assay [4] the target is Msb4_(22-81Δ35-39)–Spa2CRU (Saccharomyces cerevisiae) (UniProt Q12317+P23201). The description is as above.
The target of assay [5] is SHD1CRU (Saccharomyces cerevisiae) (UniProt P23201). The assay can be described thus: split reporter; large-scale split-ubiquitin (Split-Ub) array: PMET17-SHD1CRU a-strain mated with a library of Nub-fusion α-strains; diploids as quadruplets on SD medium without methionine with 1 mg/ml 5-FOA and copper sulfate; colony growth indicates interaction.
The target is the same in assay [6]. The assay can be described thus: split reporter; small-scale Split-Ub: diploid cells co-expressing a Nub and a CRU fusion spotted in 10-fold serial dilutions from OD600=1 on SD medium with 5-FOA, 30°C, 2-5 days.
Assay [7] concerns the target SHD1CRU with L109A (Saccharomyces cerevisiae) (UniProt P23201). The assay is described as above.
Assay [8] addresses SHD1CRU with L101A (Saccharomyces cerevisiae) (UniProt P23201). The description is as above.
For assay [9], the target named is SHD1_(K97D) (CRU fusion) (Saccharomyces cerevisiae) (UniProt P23201). The assay is described as above.
The target in assay [10] is SHD1CRU with L48A and L51A (Saccharomyces cerevisiae) (UniProt P23201). The description is as above.
The target of assay [11] is SHD1CRU with L101A and L109A (Saccharomyces cerevisiae) (UniProt P23201). Described as above.
The target of assay [12] is SHD1CRU with L51A (Saccharomyces cerevisiae) (UniProt P23201). The description is as above.
Assay [13] deals with SHD1CRU with L48A (Saccharomyces cerevisiae) (UniProt P23201). The description is as above.
Assay [14] addresses SHD1CRU (Saccharomyces cerevisiae) (UniProt P23201). The assay can be described thus: split reporter; foldback competition assay, Split-Ub spotted as in Fig. 1C: SHD1CRU extended at its N-terminus by an FRM-containing stretch that occupies the pocket intramolecularly; loss of the Nub–Msb3 signal on 5-FOA is read as binding of the stretch (Fig. 3C, 7C).
Assay [15] addresses Dse3_(181-240Δ208-212)–SHD1CRU (Saccharomyces cerevisiae) (UniProt Q08729+P23201). Described as above.

Sequences of proteins named here, by UniProt entry; tags and fusion partners are left off. A change or cut given only in a name is not applied to a line headed by its entry. A line that says so, or that is headed by a name, gives the form on record, which may keep a tag or linker. Residues count along the entry.
UniProt P06784: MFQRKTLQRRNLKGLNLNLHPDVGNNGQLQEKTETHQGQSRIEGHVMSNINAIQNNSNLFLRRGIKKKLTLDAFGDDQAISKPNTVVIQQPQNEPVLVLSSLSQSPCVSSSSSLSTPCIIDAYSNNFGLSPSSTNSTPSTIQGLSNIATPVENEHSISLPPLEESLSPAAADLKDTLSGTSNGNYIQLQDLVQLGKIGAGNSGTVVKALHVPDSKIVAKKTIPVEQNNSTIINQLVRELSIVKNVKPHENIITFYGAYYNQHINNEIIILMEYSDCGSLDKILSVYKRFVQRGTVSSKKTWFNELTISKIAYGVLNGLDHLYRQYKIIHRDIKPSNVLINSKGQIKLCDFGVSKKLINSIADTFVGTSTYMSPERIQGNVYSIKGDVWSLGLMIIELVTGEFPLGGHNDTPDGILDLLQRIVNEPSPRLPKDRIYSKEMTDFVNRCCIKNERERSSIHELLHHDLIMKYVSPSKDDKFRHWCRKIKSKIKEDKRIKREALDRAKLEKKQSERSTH
UniProt P23201: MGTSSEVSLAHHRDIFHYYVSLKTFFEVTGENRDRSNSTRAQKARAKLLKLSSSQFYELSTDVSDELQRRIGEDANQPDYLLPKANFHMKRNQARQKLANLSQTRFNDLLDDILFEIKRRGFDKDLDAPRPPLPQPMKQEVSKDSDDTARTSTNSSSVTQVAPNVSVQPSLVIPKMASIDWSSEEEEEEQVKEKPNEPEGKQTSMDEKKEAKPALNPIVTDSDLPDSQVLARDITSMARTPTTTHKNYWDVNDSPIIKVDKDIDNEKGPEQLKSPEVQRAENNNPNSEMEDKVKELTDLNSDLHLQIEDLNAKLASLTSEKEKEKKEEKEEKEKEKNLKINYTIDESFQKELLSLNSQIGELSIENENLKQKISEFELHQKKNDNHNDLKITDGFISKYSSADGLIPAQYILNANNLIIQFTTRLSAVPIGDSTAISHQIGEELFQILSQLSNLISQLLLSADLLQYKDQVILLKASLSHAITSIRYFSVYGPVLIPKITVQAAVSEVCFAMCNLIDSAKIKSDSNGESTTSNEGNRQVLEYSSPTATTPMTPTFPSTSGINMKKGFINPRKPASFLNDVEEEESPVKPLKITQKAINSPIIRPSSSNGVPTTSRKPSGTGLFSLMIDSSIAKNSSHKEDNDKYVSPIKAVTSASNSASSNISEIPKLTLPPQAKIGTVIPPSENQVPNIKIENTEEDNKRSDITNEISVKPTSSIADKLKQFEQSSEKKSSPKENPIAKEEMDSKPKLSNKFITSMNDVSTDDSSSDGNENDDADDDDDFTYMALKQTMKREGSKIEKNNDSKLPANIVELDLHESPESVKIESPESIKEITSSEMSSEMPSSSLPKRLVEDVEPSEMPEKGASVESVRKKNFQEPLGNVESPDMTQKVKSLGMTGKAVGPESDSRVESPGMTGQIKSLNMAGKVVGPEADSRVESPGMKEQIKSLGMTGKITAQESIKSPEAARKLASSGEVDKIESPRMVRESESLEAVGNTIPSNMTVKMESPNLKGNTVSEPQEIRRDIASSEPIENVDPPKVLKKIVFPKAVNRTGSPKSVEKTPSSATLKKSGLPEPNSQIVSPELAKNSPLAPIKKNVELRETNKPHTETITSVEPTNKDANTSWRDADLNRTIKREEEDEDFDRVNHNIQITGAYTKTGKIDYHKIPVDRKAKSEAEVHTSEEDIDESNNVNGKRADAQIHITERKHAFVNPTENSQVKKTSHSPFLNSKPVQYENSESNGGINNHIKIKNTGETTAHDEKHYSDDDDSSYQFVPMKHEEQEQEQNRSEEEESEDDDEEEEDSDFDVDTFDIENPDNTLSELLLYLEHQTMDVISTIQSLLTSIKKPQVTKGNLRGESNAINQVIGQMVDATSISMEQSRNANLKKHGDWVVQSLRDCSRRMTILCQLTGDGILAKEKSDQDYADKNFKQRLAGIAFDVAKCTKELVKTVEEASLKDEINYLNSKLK
SHD1CRU: residues 1-124 of P23201
SHD1CRU with L109A (P23201, form named): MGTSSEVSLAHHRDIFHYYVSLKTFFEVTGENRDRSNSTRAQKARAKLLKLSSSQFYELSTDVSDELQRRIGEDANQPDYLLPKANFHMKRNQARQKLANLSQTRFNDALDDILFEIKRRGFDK
SHD1CRU with L101A (P23201, form named): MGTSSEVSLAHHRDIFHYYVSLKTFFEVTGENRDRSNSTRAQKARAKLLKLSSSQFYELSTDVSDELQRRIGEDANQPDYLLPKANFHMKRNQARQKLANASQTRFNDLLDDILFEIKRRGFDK
SHD1CRU with L48A and L51A (P23201, form named): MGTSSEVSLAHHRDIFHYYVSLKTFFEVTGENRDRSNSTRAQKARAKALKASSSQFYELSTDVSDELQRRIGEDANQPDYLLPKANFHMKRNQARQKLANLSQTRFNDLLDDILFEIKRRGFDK
SHD1CRU with L101A and L109A (P23201, form named): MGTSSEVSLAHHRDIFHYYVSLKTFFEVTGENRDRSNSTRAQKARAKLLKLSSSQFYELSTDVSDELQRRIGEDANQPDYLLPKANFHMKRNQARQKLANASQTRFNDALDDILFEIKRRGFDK
SHD1CRU with L51A (P23201, form named): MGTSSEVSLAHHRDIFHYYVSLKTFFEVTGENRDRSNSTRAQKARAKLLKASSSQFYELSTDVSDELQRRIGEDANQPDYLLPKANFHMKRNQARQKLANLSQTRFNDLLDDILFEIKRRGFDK
SHD1CRU with L48A (P23201, form named): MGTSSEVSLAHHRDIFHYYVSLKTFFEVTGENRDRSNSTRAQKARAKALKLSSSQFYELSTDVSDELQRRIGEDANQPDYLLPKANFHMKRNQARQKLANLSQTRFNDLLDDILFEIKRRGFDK
UniProt Q08729: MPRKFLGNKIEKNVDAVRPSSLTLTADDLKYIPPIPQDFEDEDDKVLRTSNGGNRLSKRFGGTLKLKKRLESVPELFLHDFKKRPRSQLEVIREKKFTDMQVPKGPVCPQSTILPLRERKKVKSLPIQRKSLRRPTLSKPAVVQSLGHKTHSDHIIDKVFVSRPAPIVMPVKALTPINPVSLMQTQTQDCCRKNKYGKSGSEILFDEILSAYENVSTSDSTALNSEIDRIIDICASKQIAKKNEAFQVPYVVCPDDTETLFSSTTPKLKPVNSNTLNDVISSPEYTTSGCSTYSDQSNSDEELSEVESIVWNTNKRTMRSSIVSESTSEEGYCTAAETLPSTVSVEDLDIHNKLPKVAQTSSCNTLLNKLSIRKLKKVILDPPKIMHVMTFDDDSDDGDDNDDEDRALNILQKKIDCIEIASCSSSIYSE

Results are given in words; binding and its absence hold for the method and conditions named. Binding seen in cells or lysates may run through a third protein. Some binding calls cover weakened binding; strength is not graded here.

B1: Nub–Msb4 (protein, UniProt Q12317 1-492)
chain: MIMSSTMSTEAALVPNESVFDTVSSFNEDDANYSVLDLYDDDDEGDDSSTVERKEILTTRELEKAKAFTSLIMADPENFDRYGFSKKGYFISQEEYDKWWTEYNRYTERRKKKWENFLLKNKIELHNDNPLVYPARTDELSKFVRKGIPAEWRGNAWWYFAGGQRQLDANVGVYDRLKSDCREGAVSGKDMEAIERDLYRTFPDNIHFHKESFQNGEPAIIRSLRRVLMAFSVYDKTIGYCQSMNFLVGLLLLFMEEEKAFWMLVIITGKYLPGVYESDLEGANVDQGVLVLCIKEYLPEIWSHIESSYMNGNGSTDQISGPASGEEYLCRLPTLTLCTASWFMSCFVGVVPIETTLRIWDCLFYEESHFLFKVALGILKLSESEFLESKSQKLFRQYSSYTFGGSNDSDSTFKRLKNKIKTQEEADMEILQVIQNFPKRLLNPNDIFEKVLMKKKVALNGITQEKIDRGREYVAMARNRQRASSRPKERRK
Take B1: the binding result was “no binding” in assay [1]; “binds” in [2]; “no binding” in assay [3]; “binds” in [4]; “binds” in [5]; “binds” in assay [6]. Further, the binding entry in [7] is “binds”; in assay [8] it was “binds”; in [9], “binds”; in [10], “no binding”; in assay [11] it was “no binding”; in assay [12], “binds”. Also, the binding entry in assay [13] was “binds”.

B2: Nub–Msb3 (protein, UniProt P48566 1-633)
chain: MQNDQQRFSLQNRTVLAHPYKRLGGAFTVKSPSVPNFHDKMHSDHSSSDSALVNGSFRANDHRSVEPSCLGQASPSEHDGNLSVIDLYGDEVESQRAEGEDDDDNNGDNGNEDLEEVHSDDLDLVPDDDNRQRVELEGAASATSANSNGINNTHFDRYGFKKQNNYISEAEYDKWWVEYSQYCVRRKHKWQLLLEKSGLPVTDDSPSRFPSKSERLKRYVRKGIPAEWRGNAWWHFARGQEKLNKNKGVYSQLLRKMKQIKKQNPNEKQVQDLDIIERDLNRTFPDNIHFQSSLHNKEGPPIIKSLRRVLVAFSLYNPKIGYCQSMNFLAGLLLLFLDEERAFWMLVIITSRYLPGVHNINLEGVNIDQGVLMLCVKEYIPEVWSYIKPSIDHHQKNNKTFSPSNKKVLFNMQKNEFLYRLPPITLCTASWFMSCFVGVVPIETTLRIWDCLFYEESHFLFKVSLAVLKLSEHDLSKIKPRNNSLNYSWGSNLNQRGGSMGQEDSDMEIFQVIQTFPKTLLNPNEIFEKIIFKRRFNLNRLDQDEIDRCRKFVAAQRLKFKTYGELLGNSTSEADLPINDNTDNKGIHITSDAVNEALSSEVYGFKKSLAGVHWNNSIKEKVKQMRKKKDKGD
In the case of B2, the binding result in [1] is reported as “no binding”; in assay [2], “binds”; in [3], “no binding”; in assay [4] it was “binds”; in [5], “binds”; in assay [14], “binds”. For the same molecule, the binding entry is “binds” in assay [15]; “binds” in assay [6]; “no binding” in assay [7]; “no binding” in assay [8]; “no binding” in assay [9]; “no binding” in [12]. Further, the binding result in assay [13] was “no binding”.

The values above are taken from publication PMC12831199.
